# Results as given in PMC12820563.
# The list shows a part of the results. The list includes weakly bound sequences.
# Biological target: T1, MBP-FoxP3dN (UniProt Q99JB6)
# T1 sequence: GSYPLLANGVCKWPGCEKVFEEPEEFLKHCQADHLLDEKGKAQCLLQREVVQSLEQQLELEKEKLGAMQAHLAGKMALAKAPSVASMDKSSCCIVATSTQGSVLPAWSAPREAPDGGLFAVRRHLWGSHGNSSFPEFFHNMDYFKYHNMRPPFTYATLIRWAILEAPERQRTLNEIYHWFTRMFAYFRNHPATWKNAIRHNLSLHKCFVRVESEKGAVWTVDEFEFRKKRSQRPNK
# Test: PD-seq (MBP pull-down with sequencing)
# Conditions: 20 mM Tris-HCl pH 7.5, 100 mM NaCl, 1.5 mM MgCl2, 0.4 uM protein, 0.1 uM dsDNA library, 30 min, room temperature, amylose pull-down; high values mean tight binding; double strand, one strand shown
row,Sequence,binding signal (RPM ratio (pull-down/input))
1,GATGATTGTTCTCCCAGCTGATGAATTTAATGTGTCGAGTAAACAAATTTTCCTAATCTTTCTGTTCAAGCGCCATCTAC,4.02
2,GATGATTGTTCTCCCAGCTGATGAATTATGCTGGTCGAGTAAACAAATTTTCCTAATCTTTCTGTTCAAGCGCCATCTAC,1.46
3,GATGATTGTTCTCCCAGCTGATGAATTTTATGTCTCGAGTAAACAAATTTTCCTAATCTTTCTGTTCAAGCGCCATCTAC,1.12
4,GATGATTGTTCTCCCAGCTGATGAATTGGCAATGTCGAGTAAACAAATTTTCCTAATCTTTCTGTTCAAGCGCCATCTAC,0.887
5,GATGATTGTTCTCCCAGCTGATGAATTCGGGCGCTCGAGTAAACAAATTTTCCTAATCTTTCTGTTCAAGCGCCATCTAC,0.333
6,GATGATTGTTCTCCCAGCTGATGAATTGCATCCATCGAGTAAACAAATTTTCCTAATCTTTCTGTTCAAGCGCCATCTAC,5.42
7,GATGATTGTTCTCCCAGCTGATGAATTCGCCATCTCGAGTAAACAAATTTTCCTAATCTTTCTGTTCAAGCGCCATCTAC,1.34
8,GATGATTGTTCTCCCAGCTGATGAATTTAGCAATTCGAGTAAACAAATTTTCCTAATCTTTCTGTTCAAGCGCCATCTAC,4.28
9,GATGATTGTTCTCCCAGCTGATGAATTCCGCCTGTCGAGTAAACAAATTTTCCTAATCTTTCTGTTCAAGCGCCATCTAC,5.28
10,GATGATTGTTCTCCCAGCTGATGAATTCCAGTTGTCGAGTAAACAAATTTTCCTAATCTTTCTGTTCAAGCGCCATCTAC,0.891
11,GATGATTGTTCTCCCAGCTGATGAATTCCGCACGTCGAGTAAACAAATTTTCCTAATCTTTCTGTTCAAGCGCCATCTAC,1.91
12,GATGATTGTTCTCCCAGCTGATGAATTAATGGGATCGAGTAAACAAATTTTCCTAATCTTTCTGTTCAAGCGCCATCTAC,0.333
13,GATGATTGTTCTCCCAGCTGATGAATTCCGGAAGTCGAGTAAACAAATTTTCCTAATCTTTCTGTTCAAGCGCCATCTAC,0.15
14,GATGATTGTTCTCCCAGCTGATGAATTACAGCCCTCGAGTAAACAAATTTTCCTAATCTTTCTGTTCAAGCGCCATCTAC,0.516
15,GATGATTGTTCTCCCAGCTGATGAATTGAACGCGTCGAGTAAACAAATTTTCCTAATCTTTCTGTTCAAGCGCCATCTAC,0.533
16,GATGATTGTTCTCCCAGCTGATGAATTGCCGATGTCGAGTAAACAAATTTTCCTAATCTTTCTGTTCAAGCGCCATCTAC,0.606
17,GATGATTGTTCTCCCAGCTGATGAATTGGCGTAATCGAGTAAACAAATTTTCCTAATCTTTCTGTTCAAGCGCCATCTAC,0.732
18,GATGATTGTTCTCCCAGCTGATGAATTCTTTGCGTCGAGTAAACAAATTTTCCTAATCTTTCTGTTCAAGCGCCATCTAC,0.489
19,GATGATTGTTCTCCCAGCTGATGAATTGGGACTCTCGAGTAAACAAATTTTCCTAATCTTTCTGTTCAAGCGCCATCTAC,1.66
20,GATGATTGTTCTCCCAGCTGATGAATTCAAAGTCTCGAGTAAACAAATTTTCCTAATCTTTCTGTTCAAGCGCCATCTAC,0.253

row,Sequence,binding signal (RPM ratio (pull-down/input))
1,GATGATTGTTCTCCCAGCTGATGAATTAATCAGTTCGAGTAAACAAATTTTCCTAATCTTTCTGTTCAAGCGCCATCTAC,0.427
2,GATGATTGTTCTCCCAGCTGATGAATTTGGCGTTTCGAGTAAACAAATTTTCCTAATCTTTCTGTTCAAGCGCCATCTAC,3.37
3,GATGATTGTTCTCCCAGCTGATGAATTGGGAGGCTCGAGTAAACAAATTTTCCTAATCTTTCTGTTCAAGCGCCATCTAC,0.412
4,GATGATTGTTCTCCCAGCTGATGAATTTGCTCAATCGAGTAAACAAATTTTCCTAATCTTTCTGTTCAAGCGCCATCTAC,0.348
5,GATGATTGTTCTCCCAGCTGATGAATTTTCACCGTCGAGTAAACAAATTTTCCTAATCTTTCTGTTCAAGCGCCATCTAC,0.222
6,GATGATTGTTCTCCCAGCTGATGAATTTCAGAGATCGAGTAAACAAATTTTCCTAATCTTTCTGTTCAAGCGCCATCTAC,0.218
7,GATGATTGTTCTCCCAGCTGATGAATTAACACCGTCGAGTAAACAAATTTTCCTAATCTTTCTGTTCAAGCGCCATCTAC,0.355
8,GATGATTGTTCTCCCAGCTGATGAATTCTGCAGATCGAGTAAACAAATTTTCCTAATCTTTCTGTTCAAGCGCCATCTAC,0.423
9,GATGATTGTTCTCCCAGCTGATGAATTTCAGAACTCGAGTAAACAAATTTTCCTAATCTTTCTGTTCAAGCGCCATCTAC,0.168
10,GATGATTGTTCTCCCAGCTGATGAATTCATTGTGTCGAGTAAACAAATTTTCCTAATCTTTCTGTTCAAGCGCCATCTAC,3.5
11,GATGATTGTTCTCCCAGCTGATGAATTATTTGACTCGAGTAAACAAATTTTCCTAATCTTTCTGTTCAAGCGCCATCTAC,0.481
12,GATGATTGTTCTCCCAGCTGATGAATTGTTCTGATCGAGTAAACAAATTTTCCTAATCTTTCTGTTCAAGCGCCATCTAC,0.32
13,GATGATTGTTCTCCCAGCTGATGAATTCAGTCACTCGAGTAAACAAATTTTCCTAATCTTTCTGTTCAAGCGCCATCTAC,0.774
14,GATGATTGTTCTCCCAGCTGATGAATTCCAGGATTCGAGTAAACAAATTTTCCTAATCTTTCTGTTCAAGCGCCATCTAC,0.215
15,GATGATTGTTCTCCCAGCTGATGAATTGGATAATTCGAGTAAACAAATTTTCCTAATCTTTCTGTTCAAGCGCCATCTAC,0.314
16,GATGATTGTTCTCCCAGCTGATGAATTACCCACATCGAGTAAACAAATTTTCCTAATCTTTCTGTTCAAGCGCCATCTAC,0.409
17,GATGATTGTTCTCCCAGCTGATGAATTCCGACCGTCGAGTAAACAAATTTTCCTAATCTTTCTGTTCAAGCGCCATCTAC,0.43
18,GATGATTGTTCTCCCAGCTGATGAATTTAATTTCTCGAGTAAACAAATTTTCCTAATCTTTCTGTTCAAGCGCCATCTAC,1.98
19,GATGATTGTTCTCCCAGCTGATGAATTCTCTCCTTCGAGTAAACAAATTTTCCTAATCTTTCTGTTCAAGCGCCATCTAC,0.179
20,GATGATTGTTCTCCCAGCTGATGAATTGAGTAATTCGAGTAAACAAATTTTCCTAATCTTTCTGTTCAAGCGCCATCTAC,0.863
